# Experimental data: the supplement of paper PMC11417369
# This is one part of the list.
# System: PF3D7_0420300 AP2 domain 1 (GST-tagged)
# Experiment: gcPBM binding intensity (ln(normalized median fluorescence intensity)); higher = stronger DNA binding
# Outline: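 The binding buffer was 1× PBS containing 1% milk, 0.2 mg/ml BSA, 0.5% salmon testes DNA and 0.03% Triton X-100. In it, GST-tagged P. falciparum DNA-binding domains expressed in E. coli were applied for 1 h to an Agilent 4 × 180k array of primer-extended double-stranded 36-bp intergenic genomic probes plus negative controls. Binding intensity, read with Alexa488 anti-GST antibody and a 488 nm scan, is the highest Masliner-normalised natural-log median intensity across replicate spots of either probe orientation.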
row,Sequence,gcPBM binding intensity (ln)
1,TACCAAAAAAAAAAAAATAAAAATAAAAAAAAAAAT [CACACA_negctrl_site1714],9.13
2,AAAATAAAAATAAAAGCACACATAAATATATATATA [CACACA_site8409],9.61
3,TAACTATTATAAAAATGTACAAATGAAAATATTTTT [XGTACX_site1438],9.2
4,TTCCTGTTAATTACAACACACAATTTTTATTTTATG [CACACA_site779],9.61
5,TTTCAACTTTTGTCATGTACACATAATTTTATTGCA [XGTACX_site6701],9.3
6,ATTTATTTATCAAATATTATCTTAAAAAAAAAAGAA [CACACA_negctrl_site1345],8.79
7,CATCTGGTATCTAATAGTACATATATATAATATCTT [XGTACX_site2774],9.3
8,AACAAAAGAAAAAAATATATATATTCGTCCTATTTT [CACACA_negctrl_site444],9.31
9,TATATATGCATTAAAGTGTTTTTTTTTTTTTTTTTT [CACACA_negctrl_site1353],9.11
10,TGTATAACCATAAATTGTACAGAAAAAAGTATAAAA [XGTACX_site1493],9.29
11,TTAAAAAATATATACGTTGATATAATACAACTTGAC [CACACA_negctrl_site1551],9.16
12,ATGTGTATATGTTAATGTACAAATTTTGAAAATGCC [XGTACX_site2685],9.5
13,ATTTTTTTTTTTTATGGTACACACACGCGTATGGTT [XGTACX_site3888],9.93
14,CGACTTTTAAAATATACACACATATAAATAAATATA [CACACA_site6523],9.37
15,TTACAATATAATAAATGTACATATAACAAATATATA [XGTACX_site2199],9.34
16,TTTTTTTTTTTTTGTAGTACATACTATTTTATTAAT [XGTACX_site950],9.22
17,TAGATGTATTTTTAAAGTACTTTTTAATATATAATC [XGTACX_site1431],9
18,AGAATTATATACACAAGTACATAATGACATATATAT [XGTACX_site5617],9.4
19,TAAAAAATTATATTCACACACATACACATATATATA [CACACA_site545],9.83
20,ATATTAAATATATACAGTACACATTACAATACAATA [XGTACX_site3221],9.65
21,CTTTGTAGTTGGTCCACACACATATCTGGAAGAATA [CACACA_site4834],9.39
22,TATTTTCCATGAGGTAGTACACATTAAAAAATCGTT [XGTACX_site6887],9.08
23,TAAGCGTTTTTTAAAACACACATAAGAACTAAATGA [CACACA_site1670],9.24
24,TTTCTTAAACCGTACAGTACACACCTTTATAATGTT [XGTACX_site434],9.46
